From the RNAGym collection of RNA variant scans (doi:10.1073/pnas.2313332121)
This sample is rich in variants without activity.

B1: TPR 5TU (parent)
chain: GGAUCUUCUCGAUCUAACAAAAAAGACAAAUCUGCCACAAAGCUUGAGAGCAUCUUCGGAUGCAGAGGCGGCAGCCUUCGGUGGCGCGAUAGCGCCAACGUUCUCAACUAUGACACGCAAAACGCGUGCUCCGUUGAAUGGAGUUUAUCAUG

Variants of: B1
Test: polymerase ribozyme fitness, log enrichment relative to wild type (log ratio); higher = more active; in vitro selection for triplet polymerase activity
How it was run: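 Both subunits of a heterodimeric triplet polymerase ribozyme were given their own mutant library, built by PCR and transcribed. Each library was annealed with a biotinylated primer, the partner subunit and triplets, incubated frozen at −7 °C, and its extended constructs gel-excised, captured on streptavidin beads and amplified by RT-PCR, all in one round done in triplicate. Fitness is the logarithm of genotype enrichment relative to wild-type enrichment, with replicates averaged by inverse-variance weighting. That logarithm is base 2, and Illumina-sequenced genotypes needed ≥10 input reads and ≥1 read per output.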

Variant	polymerase ribozyme fitness (log ratio)
A21U A39U U61G G92U C108A G141A	≤ -4.2
A21C A29G A30U G50A C57U C96G	≤ -4.2
A21U A24U A52G G71U U90C C123U G126U U144A A147C U151A	≤ -4.2
A21G C103A U104G A120G	≤ -4.2
A21U A64C U145G	≤ -4.2
A21C G50A G80C	≤ -4.2
A21G C85U	-0.132
A21U A49G U55A G84A U104C A137U G140C A150C	≤ -4.2
A21C U45C G58A A97U G100A G124U U134A	≤ -4.2
A21C G42A C54A C96G U102G	≤ -4.2
A21G A23C U31A C32U A66C G83U	≤ -4.2
A21U A64U G81A G84C A115U C116G	≤ -4.2
A21G C35A A49G C96G	≤ -4.2
A21G U45A A49G C85G C96U G152A	≤ -4.2
A21U A41C G86A G100U A110C	≤ -4.2
A21G A29C G48A C57U G68A G81C	≤ -4.2
A21U A39C G58A G94C C125G U148G	≤ -4.2
A21C U61A A89U U90G G100U G136A A138C U144G	≤ -4.2
A21G A49C G62C A66G G71C A106G	≤ -4.2
A21U A73U U90A	≤ -4.2
A21U G50A G92C A97G C123A U134G	≤ -4.2

Variant	polymerase ribozyme fitness (log ratio)
A21G G48A C54U G92A	≤ -4.2
A21G G81A U82C A107G	≤ -4.2
A21C C38A G84A C93A A107C A115C A122U	≤ -4.2
A21G G25C G34A A49G C72U G92C G112U	≤ -4.2
A21U A26U A39G C79A G141A	≤ -4.2
A21U G68U G86A G94U C108G G133A A138U	≤ -4.2
A21G C32G A39U C54U G59A U82G A91G U139G	≤ -4.2
A21C C32G C43U C57A G71U C85A G88C A91C A147U	≤ -4.2
A21G A26G A41U G46C U55A C85U A120G	≤ -4.2
A21C A41U G71A A98U G136U A147U U148C	≤ -4.2
A21C A60G A73U C93G A137U	≤ -4.2
A21G A22G A37C G62C G94C C103A A106C U130A	≤ -4.2
A21C U61G C85U	0.133
A21G A49G C63G C96U A98U C125G	-0.663
A21G G50U C76A A89U C93G C116A C123G C131A G141U G143U U146A	≤ -4.2
A21G A28C G141C	≤ -4.2
A21U A29U G46C C72A G84U C105U U145C	≤ -4.2
A21C G71C C75A C95U U101A C105U U144C	≤ -4.2
A21U C85U G124A G126A G136A	-3.04
A21C A52G A64U G94A C108A U135A	≤ -4.2
A21U G42A C85U C131U U135A G136C U148C U151G	≤ -4.2

Variant	polymerase ribozyme fitness (log ratio)
A21U G34A C93U C99G C149G	≤ -4.2
A21C C93U	-1.24
A21U A28U U31A C75U C85U G117A G136C	≤ -4.2
A21C U56A C75A C99U	≤ -4.2
A21G C36U G65A A91C C116U	≤ -4.2
A21G C93A C103U	-1.75
A21U A29C A39C A40C C43U	≤ -4.2
A21U C96U C108U C132A	≤ -4.2
A21C A52U G74A G94C A121U	≤ -4.2
A21C U31G G80C A91U C103A C149A	≤ -4.2
A21G A22G G25U U55A G71C G92A U102G C125U G126A	≤ -4.2
A21G C85U A138U U144C	≤ -4.2
A21C C35G C36A G86A G143A	≤ -4.2
A21U A39G G84U	≤ -4.2
A21U A41G	1.06
A21U A26G G59C G86C G88A C118G U135A	≤ -4.2
A21C C27A C95U U134G A138C	≤ -4.2
A21U A29C A30C U45A C85U G133U	≤ -4.2
A21G A60G U78C A89U G92A G124U A137G G143U	≤ -4.2
A21G U33C A40C G62A G83C	≤ -4.2
A21C G25A G92A G133U A150G	≤ -4.2

Variant	polymerase ribozyme fitness (log ratio)
A21G A73G G86U G100C G136U C149G	≤ -4.2
A21G A41U C85A C116U	-1.58
A21U A41G A60U C85U C103G C123A	-3.69
A21G G59A G83A C87G	≤ -4.2
A21C A91G C96U	-3.34
A21C G25U U45A C93A G141A	≤ -4.2
A21U C57A G84A C85A C87A G94C C103A G152A	≤ -4.2
A21C C43U A142C U145A	≤ -4.2
A21U A29C A30C A39G U44A A49C U53A G68A C105U	≤ -4.2
A21U G46C A47U A52G U55A G58C C95U U134G C149U	≤ -4.2
A21U C57G U77A A119U	≤ -4.2
A21U G34A G141A C149G	≤ -4.2
A21U A30U C38G C85G G112A G124A	≤ -4.2
A21C A52C U56A C85G C93G A98U	≤ -4.2
A21U G58C A73G C85G	-1.7
A21U A60G	0.987
A21U G50C G70U C93A	≤ -4.2
A21G A39C U78A C85G U102G C118G	≤ -4.2
A21G C85G G86A	≤ -4.2
A21G C38U A60G C85U	1
